From PubChem BioAssay AID1508642 (National Center for Advancing Translational Sciences (NCATS), 2021)
About 200 (0.47%) of roughly 43,000 compounds were called active. About 12% were inconclusive and are not listed. The call rests on the fitted dose curve; in most records, active means well fitted cell-killing curve with a large enough effect; inconclusive means small, poorly fitted or top-dose-only effect, or effect the other way; inactive means flat fitted curve, though single readings scatter. The list shows a part of the results.

Experiment: Cell viability qHTS assay in S16 Pmp22-F2sN cells; further: nearly all actives have a fitted effect of over 65% in size
Settings: S16 Pmp22-F2sN Schwann cells (luciferase reporters placed in the Pmp22 gene) viability, CellTiter-Glo, 24 h; series mostly up to 57.5 µM; activity change, negative = cytotoxicity: at the top concentration
Method in brief: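 S16 Schwann cells carrying the Pmp22-F2sN reporter, seeded in 1536-well format, were exposed to library compounds for 24 h at 37C. Viability was read as CellTiter-Glo luminescence after 15 min at room temperature.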
On the % scale 0 is the no-effect control and ±100 the full control effect.

| Structure (SMILES) | activity change, negative = cytotoxicity |
| --- | --- |
| CC(=O)c1ccc(NC(=O)c2cccc(NC(=O)N3CCSc4ncccc43)c2)cc1 | inactive: -2.36% |
| Cc1cc(C)cc(N(C)S(=O)(=O)c2nnc(NC(=O)COc3ccc(C)c(C)c3)s2)c1 | inactive: 11.2% |
| CCOCCCNC(=O)c1c(NC(=O)Cc2coc3c(C)c(C)ccc23)sc2c1CCC2 | inactive: -11.1% |
| CCOC(=O)Cn1nc(C)c(NC(=O)COc2ccc(OC)cc2)c1C | inactive: -5.25% |
| CCn1c2ccccc2c2cc(NC(=O)COc3cc(C)c(Cl)c(C)c3)ccc21 | inactive: -1.62% |
| Cc1ccccc1C(=O)Nc1ccc(NC(=O)c2cccs2)cc1 | inactive: -0.818% |
| CCOc1ccc(-c2csc3ncnc(Nc4cccc(O)c4)c23)cc1 | inactive: 2.59% |
| COc1ccc2oc(=O)c(C(=O)NCCc3c(C)[nH]c4c(C)cccc34)cc2c1 | inactive: 6.89% |
| COC(=O)c1cc(NC(=O)CCS(=O)(=O)c2cc(Br)cc3c2N(C(=O)C2CC2)CC3)cc(C(=O)OC)c1 | inactive: 4.5% |
| CCOc1cc2[nH]c(=O)n(CCC(=O)N3CCN(c4cccc(Cl)c4)CC3)c(=O)c2cc1OCC | inactive: 13.5% |
| CC(=O)N1CCCc2cc(S(=O)(=O)N3CCC(C(=O)NCc4ccc(F)cc4)CC3)ccc21 | inactive: -1.92% |
| CCOC(=O)c1c(C)oc2nc(C)nc(N3CCN(c4ccc(C)cc4C)CC3)c12 | inactive: -13.8% |
| COc1ccc(C(=O)NCC(c2ccco2)S(=O)(=O)c2ccccc2)cc1 (configuration not stated) | inactive: 3.42% |
| CCOC(=O)c1c(C)n(-c2ccccc2)c2ccc(OC(=O)c3ccccc3Cl)cc12 | inactive: 5.92% |
| CC(C)COc1ccc(C(=O)NCC2OCCc3ccccc32)cc1 (configuration not stated) | inactive: 17.5% |
| COc1ccccc1N1CCN(C(=O)C2CCN(S(=O)(=O)c3cccc4nonc34)CC2)CC1 | inactive: 1.15% |
| Nc1ncc(S(=O)(=O)NCc2ccccc2F)cn1 | inactive: 13% |
| NC(=O)c1c(NC(=O)c2noc3c2CCCC3)sc2c1CCCC2 | inactive: 4.45% |
| Cc1cc(C)n2nc(CNC(=O)c3cccc(Cl)c3)nc2n1 | inactive: -7.86% |
| Cc1ccc(NC(=O)COc2ccc3oc4c(c3c2)CCCC4)c(C)c1 | inactive: 6.14% |
| CN(C)c1ccc(-c2nc(-c3ccccn3)no2)cc1[N+](=O)[O-] | inactive: -18.3% |

| Structure (SMILES) | activity change, negative = cytotoxicity |
| --- | --- |
| Cc1cccc(CNC(=O)c2ccc(-c3nc(CS(=O)(=O)c4ccccc4)c(C)o3)cc2)c1 | inactive: -24.9% |
| Cc1ccc(CCNC(=O)Cn2nc(C)c3c(C)n(-c4ccc(C)cc4)nc3c2=O)cc1 | inactive: -19.3% |
| COC(=O)c1sccc1S(=O)(=O)N(CC(=O)Nc1ccc(C)cc1)c1ccccc1 | inactive: 1.19% |
| COc1ccccc1N1CCN(C(=O)CCn2cnc3onc(-c4ccc(F)cc4)c3c2=O)CC1 | inactive: -22.6% |
| COc1cccc2cc(-c3nnc(Nc4ccccc4C)s3)c(=O)oc12 | inactive: 4.88% |
| Cc1cccc(NC(=O)CSc2nnc(-c3cccs3)o2)c1 | inactive: -7.29% |
| Cc1cccc(NC(=O)C(c2ccccc2)N2Cc3ccccc3C2=O)c1C (configuration not stated) | inactive: 2.19% |
| Cc1noc2ncnc(Nc3ccc(F)cc3)c12 | inactive: -0.48% |
| Cc1ccc(CCNC(=O)NCc2noc3ccc(C)cc23)cc1 | inactive: 4.74% |
| CCOc1ccc(-c2cc3nc(C4CCN(C(=O)OC(C)(C)C)CC4)c(C(=O)Nc4ccc(C(=O)OC)cc4)cn3n2)cc1 | inactive: 4% |
| Cc1cc(C)cc(N2C(=O)CS(=O)(=O)C23C(=O)N(Cc2ccc(F)cc2)c2ccc(C)cc23)c1 (configuration not stated) | inactive: 2.01% |
| COc1ccc(NC(=O)Cn2c(=O)nc(-c3ccccc3)c3ccccc32)cc1OC | inactive: 1.86% |
| COc1ccc(NC(=O)c2cccc(N3CCCS3(=O)=O)c2)cc1 | inactive: 3.37% |
| NC(=O)CSc1ncc2c(n1)-c1ccccc1N(Cc1ccccc1)S2(=O)=O | inactive: 2.33% |
| Cc1ccc(-c2noc(CCC(=O)Nc3ccc(F)cc3Cl)n2)cc1 | inactive: 1.62% |
| Cc1nn(C)c2c1c(-c1ccccc1)cc(=O)n2Cc1ccccc1F | inactive: -9.44% |
| Cc1cc(C)c2c(=O)cc(C(=O)NCCc3ccc(S(N)(=O)=O)cc3)oc2c1 | inactive: 14.9% |
| CCOc1ccc(Sc2cc(C(=O)NCc3ccc(F)cc3)c3ccccc3n2)cc1 | inactive: -1.47% |
| CC(=O)CSc1nc(-c2ccccc2)[nH]c1S(=O)(=O)c1ccc(C)cc1 | inactive: -3.17% |
| CCn1cc(C(=O)N2CCN(c3ccccc3)CC2)c(=O)c2cc(S(=O)(=O)N(C)C3CCCCC3)ccc21 | inactive: -0.475% |
| CCC(C)NC(=O)Cn1ncc2c(C)n(Cc3ccc(F)cc3)c(C)c2c1=O (configuration not stated) | inactive: 0.144% |

| Structure (SMILES) | activity change, negative = cytotoxicity |
| --- | --- |
| CCc1ccc(CNC(=O)c2nn(-c3ccc(C)c(C)c3)nc2CO)cc1 | inactive: -0.559% |
| Cc1ccc2c(=O)cc(C(=O)Nc3sc4c(c3C(=O)NCc3ccco3)CCCC4)oc2c1C | inactive: 20.9% |
| COC(=O)c1ccc(Cn2c(=O)cc(C)c3c(C)nn(C)c32)cc1 | inactive: 4.64% |
| Cc1cc(=O)[nH]c2nnc(SCC(=O)Nc3cc(C(F)(F)F)ccc3Cl)n12 | inactive: -11.7% |
| O=C(CN1C(=O)CCSc2ccc(S(=O)(=O)N3CCCC3)cc21)Nc1cccc(Cl)c1 | inactive: 1.24% |
| CCN(CC)S(=O)(=O)c1ccc2c(c1)N(CC(=O)NCc1ccccc1)C(=O)CS2 | inactive: 3.95% |
| COc1cc(Cl)c(C)cc1NC(=O)CSc1cc(=O)n(C)c2cc(Cl)ccc12 | inactive: 9.76% |
| Cn1ncc2c(NCc3cccc(Cl)c3)ncnc21 | inactive: -20.5% |
| CCOc1ccc(NC(=O)Nc2c(C)n(C)n(-c3ccccc3)c2=O)cc1 | inactive: 10.4% |
| CN(C)c1ccc(C(CNC(=O)COc2ccccc2)N2CCOCC2)cc1 (configuration not stated) | inactive: 4.23% |
| COC(=O)c1scc(-c2ccc(C)cc2)c1S(=O)(=O)N1CCN(c2cccc(OC)c2)CC1 | inactive: 12.3% |
| Fc1ccc(Nc2c3c(nc4ccccc24)CCC3)cc1 | inactive: -3.59% |
| CCc1nnc(SC(CC)C(=O)Nc2cccc(OC)c2)c2cc3oc(C)cc3n12 (configuration not stated) | inactive: -8.3% |
| Cc1ccc(Sc2c(C)nn(C(C)(C)C)c2OC(=O)C(C)(C)C)cc1 | inactive: -1.4% |
| CCc1ccc(CN(Cc2ccco2)c2cnc(S(C)(=O)=O)nc2C(=O)Nc2ccccc2Cl)cc1 | inactive: 5.65% |
| CCN(C(=O)C1CCCN(S(=O)(=O)c2c(C)noc2/C=C/N(C)C)C1)c1cccc(C)c1 (configuration not stated) | inactive: -17.2% |
| CCN(c1ccccc1)c1nnc(NC(=O)Nc2ccccc2F)s1 | inactive: 4.65% |
| O=C(NCc1ccco1)c1ccc2c(c1)N(Cc1ccc(Cl)cc1)C(=O)c1ccccc1S2=O (configuration not stated) | inactive: 1.98% |
| CCOC(=O)c1ccc(NC(=O)CC2C(=O)OCCN2CC)cc1 (configuration not stated) | inactive: 4.95% |
| CCOc1ccccc1NC(=O)CN(C)S(=O)(=O)c1ccc2nc(C)sc2c1 | inactive: 15.3% |
